This data set concerns ATP. The experiment in a line: switch fluorescence ratio, 500 uM ATP over buffer (Cy3 cluster intensity, sum of 5 cycles each) (fold (ratio)); higher = stronger signal-on switching upon ATP binding; sequences stand for … in TCGTCGGCAGCGTCAGATGTGTATAAGAGACAGTTTTTTTTTTTTTTTTTTTTTTTTT…TC. The conditions noted are these: aptamer strand: ATP DNA aptamer (quencher-CACCTGGGGGAGTATTGCGGAGGAAGG + anchor), 100 nM annealed; ATP concentration: 500 uM; one replicate. The gist of the method: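 Exposure to 500 uM ATP lasted 15 min at 22 °C before imaging, and a selection-buffer image was taken beforehand, for Cy3-labelled switching-strand clusters on a modified Illumina MiSeq flow-cell annealed to 100 nM quencher-labelled ATP aptamer. Five buffer/ATP cycles were run with NaOH stripping and re-annealing between them. The fluorescence ratio per cluster is summed target-cycle over summed buffer-cycle Cy3 intensity, averaged per switch-domain sequence. Clusters outside 100-1000 RFU were excluded.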

Sequences with one replicate were seen in a single cluster, so their values are uncertain.

For AACGATTAGC, the switch fluorescence ratio is 0.995.
As for TATGTTGAAT, the figure is 0.981; as for TGTGGGGT, 1.01; as for TCGCTAGTTT, 0.991.
As for TCCCGAAGTC, the figure is 1.2; as for CTTGTGACGA, 1.04; as for AGCTCTAAG, 0.971.
In the case of CGAGAGTGCA it was 1.02.
On to CGCGCAGTC, for which the switch fluorescence ratio came out at 1.7.
With CGCCCCAACG, the switch fluorescence ratio is 1.06.
In the case of CAGAAATAAC it was 1.07; in that of TTAGATACAG, 1.03; in that of TTCAGCTTCA, 1.08.
In the case of GCCGTGGGTT it was 0.948.
With CGTTGCAGAG, the switch fluorescence ratio came to 0.986.
As for TTGCACAGTA, the figure is 1.05; as for ATACCTAGCG, 1.04; as for CTCCAATTTT, 1.07.
As for CGATCTCGCG, the figure is 1.02; as for TATGCAGGGC, 1.02.
For TGAAATCATT, the switch fluorescence ratio is 0.951.
Turning to CTGGCCAAAA, the switch fluorescence ratio is 1.03.
As for CGGGCATGTG, the figure is 0.992; as for CGGGAAAGAC, 1.54.
On to ATGGCCGCAA, for which the switch fluorescence ratio was 4.76.
For TGTTACAGTG, the switch fluorescence ratio stood at 0.989.
As for TCCCATCCTG, the figure is 1.02.
Turning to CAATTTGCGT, the switch fluorescence ratio was determined as 0.993.
As for CATTGTACTA, the figure is 1.04; as for CAGTCTGTA, 0.998.
As for GTGGATAGGA, the figure is 0.993; as for TATGTGCTCA, 0.991; as for ATGACTTATA, 1.03.
As for GTGTGCATAG, the figure is 1.01; as for GGACTTTACC, 1.23.
Take CCTCGAGCTG: the switch fluorescence ratio turned out to be 1.96.
With GCATTACGGG, the switch fluorescence ratio came to 1.36.
As for CCCGGCAGAA, the figure is 1.54.
As for TAAATCGCGT, the figure is 0.999.
In the case of GACCTGTTCG it was 0.979.
CGTAATTAGC: the switch fluorescence ratio amounted to 1.34.
With GGAGTAGTGT, the switch fluorescence ratio is 1.01.
In the case of CTGATAGGGG it was 0.988.
In the case of CGACGTGCGT it was 1.05; in that of TCTTTACGA, 1.05; in that of CTGGTGTAGA, 1.01.
As for CTAGCTCTAA, the figure is 0.979; as for GTATCTGTCT, 1.01.
Take TTCCTATGG: the switch fluorescence ratio stood at 1.18.
Consider CAGTTGAGTA, for which the switch fluorescence ratio was 0.983.
In the case of GATGTGTCAG it was 0.973; in that of ATGTAAGATA, 0.975.
In the case of CGGATACATT it was 1.02; in that of CTGACGATTA, 1.43.
As for ATTAATTCAA, the figure is 1.
On to GCGAAGGGTA, for which the switch fluorescence ratio was determined as 1.01.
In the case of TCCGATCAGA it was 1.08.
As for TCGGCTTCTA, the figure is 1.07.
For the sequence GGATCGTTCT, the switch fluorescence ratio was found to be 0.983.
As for TAGAAGCTTA, the figure is 1.33; as for GTGGGCTTTT, 0.944.
As to GAGATTCGG, the switch fluorescence ratio is 0.94.
In the case of GTGGTATGTA it was 0.997.
In the case of CTGTTGCGCC it was 1.03; in that of AGCAAGCGGC, 1.02.
In the case of CTGATCGGAC, the switch fluorescence ratio amounted to 1.15.
In the case of GTCTACAAT it was 1.02; in that of ATTAATTCTT, 0.932; in that of GTGTAAGGGC, 1.02.
As for ATAAGAAGCA, the figure is 0.944.
In the case of AACCCTTGTG it was 0.971; in that of ATATTAATA, 1.01.
As for CCATAGTCAG, the switch fluorescence ratio was determined as 1.23.
In the case of TTGGACTACA it was 1.01; in that of TGTGTGCACA, 1.02; in that of AAGAGACCG, 1.08.
As for TCTAATTTCA, the figure is 0.942; as for ACAGAATCAC, 1.62; as for AGTTCCAGCA, 1.13.
With GGAGAAGGTG, the switch fluorescence ratio was 1.39.
As for TCCATGAGGG, the figure is 1.02; as for TTTGAACAGC, 1.02.
Turning to CTCAGTCGTG, the switch fluorescence ratio amounted to 1.01.
As for TTTAGAGTAA, the figure is 1.01.
As to GGGGCTAGCA, the switch fluorescence ratio was 1.05.
As for TGTGTGGTCA, the figure is 0.982.
As for CGTCTAGATG, the figure is 1.04.
In the case of CGGGCTCGTC it was 0.999.
As for GGAATCGTCG, the switch fluorescence ratio worked out at 0.96.
As for CGGCGACTGG, the figure is 0.963; as for GATCTAGTGG, 0.983.
Turning to CCCCGATATA, the switch fluorescence ratio stood at 1.6.
As for TTGAGTGGTG, the figure is 0.962; as for TATGTGTTT, 1.03; as for GAGTTACCCA, 1.06.
In the case of ATGAGCCAGC it was 1.03; in that of TTCGTATACG, 1.03.
In the case of TCTGACCGTT it was 1.01; in that of ACGCTTTGGC, 0.995; in that of CTGACGCGTA, 1.37.
Regarding GATGAATGAT, the switch fluorescence ratio was found to be 0.99.
In the case of GCGCTGAGGT it was 0.963.
As for GCAGGATGTT, the figure is 0.98.
Consider GTTGACAATG, for which the switch fluorescence ratio worked out at 0.947.
Turning to CTCGCCAGAA, the switch fluorescence ratio turned out to be 0.993.
In the case of ATTATGCATG it was 0.981; in that of GGATATAATT, 1.01; in that of AGCGCGTGTC, 0.974.
As for TATAGGAGAC, the figure is 0.97; as for AGTTATCTGA, 0.991; as for AGGCCAGTTC, 1.01.
On to CCTTGCGTT, for which the switch fluorescence ratio is 1.2.
As for TGTTCTATCG, the figure is 1.02; as for TAAGTGTATC, 0.973; as for GCATGCCGAC, 0.993.
As for GTATATTCTG, the figure is 1.02; as for GCTTCATCTG, 1.22.
In the case of AGTTGGAAGC it was 1.01; in that of AATATCAACA, 1.04; in that of TAACGGCTTT, 0.994.

The values are drawn from the supplement of paper PMC10126150.
